From PubChem BioAssay (NCI)
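In this assay, cells in 96-well plates receive the compound at five concentrations for 48 hours. Endpoints are linearly interpolated between the surrounding concentrations. Here, GI50 denotes the concentration required for 50% inhibition of growth. TGI: total growth inhibition.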

Tested on: NCI-H322M lung
Assay: DTP human tumour cell line panel, 48 h

| SMILES | GI50 [µM] | TGI [µM] |
| --- | --- | --- |
| CCOc1ccc(/C=N/NC(=O)Cn2nc(Cc3ccccc3)c3onc(C)c3c2=O)cc1 | > 100 | > 100 |
| Cc1cc2c(c(O)c1Br)-c1ncoc1C(=O)[C@]1(C)CC[C@H](C(C)C)[C@H]21 | 8.85 | 57.7 |
